# Laboratory results from article PMC12136788.
# The list shows a part of the results.
# T1: UNK ZnF1-6 (called full-length) (human, UniProt Q9C0B0 30-357)
# T1 sequence: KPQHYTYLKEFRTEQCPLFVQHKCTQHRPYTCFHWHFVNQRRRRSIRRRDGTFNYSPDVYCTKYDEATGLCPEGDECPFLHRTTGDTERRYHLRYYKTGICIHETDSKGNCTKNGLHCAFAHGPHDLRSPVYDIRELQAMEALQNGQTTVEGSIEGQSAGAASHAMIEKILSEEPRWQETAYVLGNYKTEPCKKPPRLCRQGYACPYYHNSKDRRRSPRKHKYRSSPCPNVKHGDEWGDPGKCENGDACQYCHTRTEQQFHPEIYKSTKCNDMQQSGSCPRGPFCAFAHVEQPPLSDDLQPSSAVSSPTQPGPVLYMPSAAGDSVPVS
# B1: ENSG00000126767:stop:overlap|stop_codon|ENSG00000126767|stop_codon|NA|stop_codon (ssRNA)
# RNA: GGGAGUUCUACAGUCCGACGAUCUGAGCGGCCAGAAGUUCGUCUACAAGUUUGUGUCCUACCCUGAGUCCCAUUGCGCCCCGUAGCCCGGCCAAGCUCUCCUUCCAGUUUCCAUCCAGUGGCAGCGCCCAGGUGCACAUCCCUCAACAGAGGAUUGAGCAUCA
# B2: ENSG00000011304:stop:overlap|stop_codon|ENSG00000011304|stop_codon|NA|stop_codon (ssRNA)
# RNA: GGGAGUUCUACAGUCCGACGAUCACAACCACGACCUCGGGGAGAACCACCACCUGCGGGUCUCCUUCUCCAAGUCCACCAUCUAGGGGCACAGGCCCCCACGGCCGGGCCCCCUGGCGACAACUUCCAUCAUUCCAGAGAAAACAACAGAGGAUUGAGCAUCA
# B3: chr3:98799072:98799370:-|3pUTR|ENSG00000057019|msi1|total|mutant (ssRNA)
# RNA: GGGAGUUCUACAGUCCGACGAUCCAAAGCAUCGUUUUAAAGCACAUGGCCUUUUUUUUUUAAUUAUCCGUGGCCGUAAUAUACCGAAUGUAUUACAUAACUGUCACUGAAGUGGUUGGGGAAAAUGUGGUGACUGAGGUACAGCAACAGAGGAUUGAGCAUCA
# B4: chr11:60923185:60923286:+|3pUTR|ENSG00000110108|msi1|total|mutant (ssRNA)
# RNA: GGGAGUUCUACAGUCCGACGAUCCAGAGAGCAGGGUGAGCUGCCAGCUGCCCCUCUCCACCAGGGUACCCUGUCUUGGUGGUCCGGGGCCACUUUUCCUUUGAGGCUCCCGUGGAGGUGGAUGUCCUUCUCUGCCAGGCUUGGCAACAGAGGAUUGAGCAUCA
# B5: chr14:22633770:22634811:-|CDS|ENSG00000255804|control|control|control (ssRNA)
# RNA: GGGAGUUCUACAGUCCGACGAUCAGUGGAAGGAAGAAGGCCUUUAAUACCUGUGCUUCCCACCUGACCAUAGUCAUCAUUUCUAGUGGCAUCACUGUGUUUAUCUAUGUGACUCCCUCCCAGAAAGAAUAUCUGGAGAUCAACCAACAGAGGAUUGAGCAUCA
# B6: chr4:56448489:56448593:+|CDS|ENSG00000128050|unk|FALSE|bound_elsewhere (ssRNA)
# RNA: GGGAGUUCUACAGUCCGACGAUCCCCACAGUGGUCUGAGGAACAGCUGAUUGCUGCAAAAUUUUGCUUUGCUGGACUUCUUAUAGGCCAGACUGAAGUGGAUAUCAUGAGUCAUGCUACACAGGCUAUAUUUGAAAUACUGGACAACAGAGGAUUGAGCAUCA
# B7: chr7:100040983:100041096:+|3pUTR|ENSG00000106261|unk|total|mutant (ssRNA)
# RNA: GGGAGUUCUACAGUCCGACGAUCGACCGCCAAGCAAAAUCAGUAAUUAUUUUAAAAUGAACAUAUGUAUUUUUAUUAACUUUCCGUUAAAUACAGAUUUUACAACGAGGUCAGCAUAAGCCUAAAUCUAUACCGAGGGCUAACCAACAGAGGAUUGAGCAUCA
# B8: chr14:39095999:39096113:-|CDS|ENSG00000100934|unk|total|mutant (ssRNA)
# RNA: GGGAGUUCUACAGUCCGACGAUCACAAUGACAACCUAUUUGGAAUUCAUUCAACAAAAUGAAGAACGAGAUGGAGUCCGAUUCCGUUGGAAUGUUUGGCCAUCAAGUCGACUGGAAGCUACAAGAAUGGUUGUUCCUGUGGCACAACAGAGGAUUGAGCAUCA
# B9: chr8:97851540:97851652:+|3pUTR|ENSG00000104341|msi1_unk|total|mutant (ssRNA)
# RNA: GGGAGUUCUACAGUCCGACGAUCCACUUUUGCCAUGAGCCUCUCUGAGCUUGUUUGUUGCUGAAAUGCUACUUUUUAAAAUUCCGAUGUCCGAUUGAAAACUGCCGUUUUCAACAUAUGCUUUGCUGGAACACUGUGACCGAUCAACAGAGGAUUGAGCAUCA
# B10: ENSG00000155158:stop:overlap|stop_codon|ENSG00000155158|stop_codon|NA|stop_codon (ssRNA)
# RNA: GGGAGUUCUACAGUCCGACGAUCAAACCAUCUCAAUUUGGCUUAAAAAAAAAUCUGGUAGAAGAGAGGGAAAGACAUCUUCAUAGUGGGACUAUAUUCAUUCCUCCAAAGUUACAGCUGCUCUAAAUCUGUGAGUGCUGAAAUCAACAGAGGAUUGAGCAUCA
# B11: ENSG00000124766:be:win_701|CDS|ENSG00000124766|bound_else_gene|NA|bound_elsewhere_windowed (ssRNA)
# RNA: GGGAGUUCUACAGUCCGACGAUCCCGCCUCCUUCGCCGCCGAACAGGCGGGGGCCGCCGCCCUGCUGCCCCUGGGCGCCGCCGCCGACCACCACUCGCUGUACAAGGCGCGGACUCCCAGCGCCUCGGCCUCCGCCUCCUCGGCAACAGAGGAUUGAGCAUCA
# B12: ENSG00000198589:be:win_3101|CDS|ENSG00000198589|bound_else_gene|NA|bound_elsewhere_windowed (ssRNA)
# RNA: GGGAGUUCUACAGUCCGACGAUCUGGAAGAAACACUGACAAAUGAGACAAGGAAUGCAGAUGAUUUAGAAGUAUCUUCUGACAUAAUAGAAGCUGUGGCUAUUUCCUCUAAUUCUUUUAUAACAACUGGCAAAGAUUCAAUGACAACAGAGGAUUGAGCAUCA
# B13: chrX:150768173:150768360:-|3pUTR|ENSG00000102181|msi1|total|mutant (ssRNA)
# RNA: GGGAGUUCUACAGUCCGACGAUCUCCCAUCUGAUUCCACCGGGGGCUGGGUGUGGCCUUCGGGUUGACAUGAGAAAGGUCUUCCGCAAUCAUUUCUGCACCGGAGAUGAGUUUUAUCCUGUGUUGGGGAGAGGUGCUCACCCUCAACAGAGGAUUGAGCAUCA
# B14: chr17:74609884:74612652:-|three_prime_utr|ENSG00000186407|control|control|control (ssRNA)
# RNA: GGGAGUUCUACAGUCCGACGAUCGACCUGUGGACUCUGGAGGGAUUUAUUGUUCCUGUGCCUCAAAGGAGGGUCCUGGCUCUUAGAGGACACUCCUCUGGAGUCCUCAAUGUGCAGCUUGGGGGUCCUCCUUUCUCCUCCCCACAACAGAGGAUUGAGCAUCA
# B15: chr1:55067125:55067226:-|3pUTR|ENSG00000162402|msi1|total|mutant (ssRNA)
# RNA: GGGAGUUCUACAGUCCGACGAUCUAUCAUCGCUGGCGACUGCACUCUCAGGAGCCCAAAAUCAGGAGUGAAAUUGCCACUUCCCGUCCCCUUAUUUCCUAUGGAAACAACGCCUUCCGCACCCCCCGCACCUGCCGUCCUCACCAACAGAGGAUUGAGCAUCA
# B16: chr12:122133860:122133961:+|CDS|ENSG00000175727|msi1|FALSE|unique (ssRNA)
# RNA: GGGAGUUCUACAGUCCGACGAUCUUUUGUGCACCCCAAACCUGUAUCCUUGACUGGGGGCAGGCCUAAGCAGCCCCACAAAAUAGUGCCUGCUCCCAAACCAGAGCCCGUGUCCUUGGUGUUGAAGAAUGCCCGUAUCGCCCCCAACAGAGGAUUGAGCAUCA
# B17: chr20:58910839:58911044:+|3pUTR|ENSG00000087460|msi1_unk|FALSE|overlapping (ssRNA)
# RNA: GGGAGUUCUACAGUCCGACGAUCCCUUAAGCACAAUUAAUUAAAAGUGAAACGUAAUUGUACAAGCAGUUAAUCACCCACCAUAGGGCAUGAUUAACAAAGCAACCUUUCCCUUCCCCCGAGUGAUUUUGCGAAACCCCCUUUCAACAGAGGAUUGAGCAUCA
# B18: ENSG00000070961:be:win_1601|CDS|ENSG00000070961|bound_else_gene|NA|bound_elsewhere_windowed (ssRNA)
# RNA: GGGAGUUCUACAGUCCGACGAUCAGGGUGGAUUACCUCGUCACGUUGGUAAUAAAACUGAAUGUGCCUUGUUGGGACUUCUUUUGGAUUUAAAACGGGAUUAUCAGGAUGUUAGAAAUGAAAUACCAGAAGAAGCACUGUACACAACAGAGGAUUGAGCAUCA
# B19: ENSG00000103404:stop:overlap|stop_codon|ENSG00000103404|stop_codon|NA|stop_codon (ssRNA)
# RNA: GGGAGUUCUACAGUCCGACGAUCUCUGCCCAAGAGCAAAUAAACGAACAUUCUUCCUCCUUUUCCUGAGUUGGGUCGUCCAGUAGGUAGCUGACUGAUUGGGGAGUGGUAUGUGCAGAUGGCAUUGUCUGGUCAACUGAGGAUCAACAGAGGAUUGAGCAUCA
# B20: ENSG00000083857:stop:overlap|stop_codon|ENSG00000083857|stop_codon|NA|stop_codon (ssRNA)
# RNA: GGGAGUUCUACAGUCCGACGAUCCACUUCCAUAUUCCAUUUUAUUUGUGGUACAUACAUUUCUCAGCCAUUUGGAAUUGUCAUAGAUACUGGCGUAAGGACAUGCUGUAUGGCUGAUUGGGCCUCUGGUAUCACUGGGAUACACAACAGAGGAUUGAGCAUCA
# B21: chr16:68260521:68260622:+|3pUTR|ENSG00000103066|msi1|FALSE|unique (ssRNA)
# RNA: GGGAGUUCUACAGUCCGACGAUCUCGCAGCUUCCCUGAGCUGCACCUCUUGCUAACCCCACCAUCACACUGCCACCCUGCCCUAGGGUCUCACUAGUACCAAGUGGGUCAGCACAGGGCUGAGGAUGGGGCUCCUAUCCACCCCAACAGAGGAUUGAGCAUCA
# B22: chr13:51761002:51761103:+|3pUTR|ENSG00000139668|unk|total|mutant (ssRNA)
# RNA: GGGAGUUCUACAGUCCGACGAUCACGGCAAGAUUGUAAUCCUGCUGUAUUCCUCGCCCUCUGUAUUCUAUCCCUUUAAAAACCCGAUAUUUAAACAUUUUAUCCUAAUGUGUUUCAUCAGAACACUUUGCACACUUUCUUACUCAACAGAGGAUUGAGCAUCA
# Molecular target: T1, UNK ZnF1-6 (called full-length)
# Test: nsRBNS (natural sequence RNA bind-n-seq); RBNS binding buffer (assumed for nsRBNS): 25 mM Tris pH 7.5, 150 mM KCl, 3 mM MgCl2, 0.01% Triton X-100, 500 ug/ml BSA, 20 U/ml SUPERase-In, 4 C; UNK is unkempt and MSI1 is Musashi-1; names of the RNAs are library labels; protein concentration not given here; high values mean tight binding
row,Binder,binding signal
1,B1,1.05 enrichment R
2,B2,0.607 enrichment R
3,B3,0.725 enrichment R
4,B4,0.603 enrichment R
5,B5,0.803 enrichment R
6,B6,0.438 enrichment R
7,B7,0.51 enrichment R
8,B8,0.363 enrichment R
9,B9,0.351 enrichment R
10,B10,0.735 enrichment R
11,B11,0.695 enrichment R
12,B12,0.6 enrichment R
13,B13,0.678 enrichment R
14,B14,0.671 enrichment R
15,B15,0.819 enrichment R
16,B16,0.506 enrichment R
17,B17,0.504 enrichment R
18,B18,0.486 enrichment R
19,B19,0.787 enrichment R
20,B20,0.91 enrichment R
21,B21,0.739 enrichment R
22,B22,0.835 enrichment R
